Results on 89 compounds are retold here after paper PMC4336329 (PLoS ONE, 2015).

Screen size: about 310,000 compounds; about 2,200 (0.71%) showed an effect of 50% or more. The effect is printed as a negative number. This is one part of the list.

For this test, the target named is human ether-à-go-go-related gene (hERG) potassium channel (human, UniProt Q12809). Put plainly: primary screen, population patch clamp on CHO cells stably expressing hERG.
human ether-à-go-go-related gene (hERG) potassium channel, sequence (Q12809 whole entry, looked up): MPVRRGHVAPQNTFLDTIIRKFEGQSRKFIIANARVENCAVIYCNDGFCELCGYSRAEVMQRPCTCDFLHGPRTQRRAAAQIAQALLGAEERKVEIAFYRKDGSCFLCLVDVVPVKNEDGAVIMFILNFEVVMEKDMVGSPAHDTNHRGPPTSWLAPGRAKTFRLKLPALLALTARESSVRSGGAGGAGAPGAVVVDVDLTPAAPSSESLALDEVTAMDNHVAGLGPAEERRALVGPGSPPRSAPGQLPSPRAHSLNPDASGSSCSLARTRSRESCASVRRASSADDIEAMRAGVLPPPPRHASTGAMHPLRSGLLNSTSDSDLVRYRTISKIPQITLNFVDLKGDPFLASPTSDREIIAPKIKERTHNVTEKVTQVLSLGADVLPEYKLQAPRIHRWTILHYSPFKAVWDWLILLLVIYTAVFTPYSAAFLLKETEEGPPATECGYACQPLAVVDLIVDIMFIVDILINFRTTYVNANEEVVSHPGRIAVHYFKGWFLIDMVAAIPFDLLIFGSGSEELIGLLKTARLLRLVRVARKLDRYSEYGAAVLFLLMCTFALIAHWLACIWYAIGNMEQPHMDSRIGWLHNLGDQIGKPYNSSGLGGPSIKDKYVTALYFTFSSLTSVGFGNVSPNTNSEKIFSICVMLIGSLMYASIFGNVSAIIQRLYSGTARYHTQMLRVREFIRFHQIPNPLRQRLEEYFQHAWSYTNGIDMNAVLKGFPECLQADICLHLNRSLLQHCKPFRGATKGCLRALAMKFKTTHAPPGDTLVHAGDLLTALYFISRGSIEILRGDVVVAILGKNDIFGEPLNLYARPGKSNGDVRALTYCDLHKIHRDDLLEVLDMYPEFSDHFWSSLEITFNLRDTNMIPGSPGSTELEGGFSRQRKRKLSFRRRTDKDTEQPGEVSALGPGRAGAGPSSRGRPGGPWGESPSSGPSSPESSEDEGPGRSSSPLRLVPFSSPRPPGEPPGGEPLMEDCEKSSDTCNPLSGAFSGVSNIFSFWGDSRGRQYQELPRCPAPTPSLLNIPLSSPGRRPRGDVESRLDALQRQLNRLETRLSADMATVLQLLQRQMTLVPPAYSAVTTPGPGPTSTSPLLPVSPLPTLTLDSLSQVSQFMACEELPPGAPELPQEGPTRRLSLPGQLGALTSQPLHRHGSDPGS
Consider `CC(=O)N1N=C(c2ccc(Cl)cc2)CC1c1ccco1` (centres unmarked), for which the “hERG current change (%, negative = inhibition) at 1uM” value worked out at 11%. To `Cn1cccc1CC(=O)N/N=C/c1cccc([N+](=O)[O-])c1` belongs 18.6%; to `Cc1cc(F)ccc1NCc1ccccc1[N+](=O)[O-]`, 12.7%. For the compound `Cn1ccnc1SCc1ccc([N+](=O)[O-])cc1`, the “hERG current change (%, negative = inhibition) at 1uM” value worked out at 4.75%. Under `Cc1cc(C)nc(NN2C(=O)C=CC2=O)n1` stands 11.6%; under `CN1C(=O)CC(C(=O)Nc2ccc(F)cc2)SC1=Nc1ccc2c(c1)OCO2` (centres unmarked), 15.2%; under `Cc1csc2nc(COC(=O)CNC(=O)c3ccc(Cl)cc3)cc(=O)n12`, 1.84%. To `CC(=O)c1c(C)[nH]c(C(=O)COC(=O)c2cccc(S(=O)(=O)N(C)c3ccccc3)c2)c1C` belongs 11.6%.

`S=c1[nH]nc(CSCc2ccccc2Cl)n1-c1ccccc1`: the “hERG current change (%, negative = inhibition) at 1uM” value is on record as 8.2%. For `O=C(O)[C@H](Cc1ccccc1)NC(=O)N1CCN(c2ccc(F)cc2)CC1`, the “hERG current change (%, negative = inhibition) at 1uM” value is -4.76%.

Turning to `O=C(CCCn1c(SCC(=O)c2ccc(O)c(O)c2)nc2ccccc2c1=O)NCC1CCCO1` (centres unmarked), the “hERG current change (%, negative = inhibition) at 1uM” value turned out to be 18.8%.

`O=C1CCC(C(=O)OC(C(=O)Nc2cc(Cl)cc(Cl)c2)c2ccccc2)=NN1` (centres unmarked): the “hERG current change (%, negative = inhibition) at 1uM” value was found to be 12%. Consider `COc1cccc(NC(=O)C2CCCCC2)c1`, for which the “hERG current change (%, negative = inhibition) at 1uM” value is reported as 3%.

`CCN(Cc1cc(=O)[nH]c2ccccc12)C(=O)c1ccc(C)cc1`: the “hERG current change (%, negative = inhibition) at 1uM” value worked out at 7.89%. Under `Cc1cccc(NCc2ccc(O)c3ncccc23)c1` stands 17%; under `COc1ccc(-c2csc(NC(=O)CN3C(=O)NC4(CCCC4)C3=O)n2)c(OC)c1`, 4.95%. Under `O=C(O)c1ccccc1NC(=O)N1C[C@H]2C[C@@H](C1)c1cccc(=O)n1C2` stands 7.17%; under `Cc1ccc(S(=O)(=O)/C(C#N)=C/c2c(N3CCN(C)CC3)nc3ccccn3c2=O)cc1`, -28.2%; under `O=C(NCCc1ccccc1)c1nnc(CS(=O)(=O)c2ccccc2)o1`, -9.24%. To `O=C(Nc1ccc(CN2CCOCC2)cc1)c1ccc(Br)cc1` belongs 10.9%.

Turning to `CCC(C)NC(=O)c1cnc2n(c1=O)CCS2` (centres unmarked), the “hERG current change (%, negative = inhibition) at 1uM” value was 12.2%. For `CCOC(=O)NC(=O)c1cn(Nc2ccccc2)c(=O)[nH]c1=O`, the “hERG current change (%, negative = inhibition) at 1uM” value came to 18.2%. Under `Cc1cccc(C)c1NC(=O)CNc1ccccc1` stands 8.21%. Regarding `Cl.O=C(O)CNc1nc(-c2ccccc2)nc2ccccc12`, the “hERG current change (%, negative = inhibition) at 1uM” value was determined as 25%. On to `CCOC(=O)CNNC(=O)Nc1ccc(Cl)c(Cl)c1`, for which the “hERG current change (%, negative = inhibition) at 1uM” value amounted to 14.7%. To `CN(C(=O)c1ccc2ccccc2c1)c1ccccn1` belongs 12.8%; to `O=c1c2ccccc2nnn1CCN1CCOCC1`, 13.2%. To `O=C(c1ccc(-c2ccccc2)cc1)N1CCN(c2ncccn2)CC1` belongs 9.41%; to `O=C(Cc1cccs1)NCc1ccc(Cl)cc1Cl`, 9.05%; to `O=C(COC(=O)c1ccccc1NCCO)NNC(=O)c1cccs1`, -2.4%.

As to `NC(=O)c1ccc(-n2nnnc2SCc2ccc(F)cc2)cc1`, the “hERG current change (%, negative = inhibition) at 1uM” value is reported as -1.02%.

In the case of `Cc1cc(=O)[nH]c(SCC(=O)Nc2cccc3ccccc23)c1C#N`, the “hERG current change (%, negative = inhibition) at 1uM” value was -4.29%. In the case of `CC1(c2ccccc2)NC(=O)N(CC(=O)N2CCN(S(=O)(=O)c3cccs3)CC2)C1=O` (centres unmarked), the “hERG current change (%, negative = inhibition) at 1uM” value was 9.74%.

Consider `COc1cccc(/C(C)=N/Nc2ccc(S(=O)(=O)N3CCCCC3)cn2)c1`, for which the “hERG current change (%, negative = inhibition) at 1uM” value stood at 4.59%. To `O=[N+]([O-])c1ccccc1OC/C(=N\O)c1ccccc1` belongs 7.38%; to `COc1ccc(C2C3=C(CCCC3=O)N(CC(=O)O)C3=C2C(=O)CCC3)cc1`, 18.1%; to `CS(=O)(=O)O.Cn1cc(C(F)(F)F)nc1-c1ccc(OCC(O)CNCCOc2ccc(O)c(C(N)=O)c2)cc1` (centres unmarked), -1.51%. Under `CCc1nn(CC(=O)N2CCC(C(N)=O)CC2)c(=O)c2cc3occc3n12` stands 4.89%; under `COc1ccc([C@H]2CC(=O)C=C(c3ccccc3Oc3ccccc3)C2)cc1`, 12%; under `O=C(CSc1nnnn1-c1cccc(C(=O)O)c1)NC(c1ccccc1)c1ccccc1`, 15.2%. To `Cc1noc(COc2ccccc2OCC(N)=O)n1` belongs 12.9%. Turning to `C=CCNc1nc(Nc2ccc([N+](=O)[O-])cc2)nc(OC)n1`, the “hERG current change (%, negative = inhibition) at 1uM” value amounted to 6.06%.

Regarding `Cc1cc(C)n(-c2nc3ccccc3c(=O)n2OC2CCCCC2)n1`, the “hERG current change (%, negative = inhibition) at 1uM” value was 15.1%. To `Cc1ccc(S(=O)(=O)N2CCN(C(=O)COC(=O)c3ccc(O)cc3)CC2)c(C)c1` belongs 5.11%. To `COc1ccc(C(=O)NCCc2nnc3ccc(SCC(=O)NCCc4ccc(OC)c(OC)c4)nn23)cc1` belongs 9.45%; to `Cc1cccc(CC(=O)NC2CCN(C)CC2)c1`, 16.4%.

For the compound `Cc1nn(-c2ccc(C(=O)O)cc2)c(C)c1Oc1ccccc1O.O=S(=O)(O)O`, the “hERG current change (%, negative = inhibition) at 1uM” value stood at 8.88%. Turning to `CCOC(=O)c1[nH]c2ccc(OC)cc2c1NC(=O)CCN1CCN(Cc2ccccc2)CC1`, the “hERG current change (%, negative = inhibition) at 1uM” value is on record as -36%. As to `COc1ccc(CCN(C)Cc2c(O)ccc3ccccc23)cc1OC`, the “hERG current change (%, negative = inhibition) at 1uM” value is on record as -11.3%. As to `Cc1c(CCC(=O)NCCCCCC(=O)O)c(=O)oc2cc3occ(-c4ccccc4)c3cc12`, the “hERG current change (%, negative = inhibition) at 1uM” value was 15.3%. To `CCN(CC(=O)NCCc1ccc(S(N)(=O)=O)cc1)Cc1nc2cc(OC)c(OC)cc2c(=O)[nH]1` belongs 8.01%. Take `COc1cccc(-n2nnc3c(=O)n(CC(=O)NCC4CCCO4)cnc32)c1` (centres unmarked): the “hERG current change (%, negative = inhibition) at 1uM” value was found to be 13.8%. To `c1cc(CNc2ccc3c(c2)OCCO3)ccn1` belongs 15.6%; to `CN(CC(=O)Nc1cccc(F)c1)C(=O)CSc1ccccc1`, 9.93%. To `COc1cc(C(=O)N/N=C/c2cccc(Oc3ccccc3)c2)ccc1O` belongs 14%; to `COc1cc2[nH]c(C(=O)N3CCC(Cc4ccccc4)CC3)cc2c(OC)c1OC`, 18.3%; to `Cc1[nH]c2ccccc2c1CCN(Cc1cccnc1)C(=S)NC(C)(C)C`, 15.2%.

With `CSCc1cc(N2CCCC2)nc(-c2ccccc2)n1`, the “hERG current change (%, negative = inhibition) at 1uM” value stood at 9.08%. To `CCOC(=O)C1=C(C)NC(=O)NC1c1ccccc1Cl` (centres unmarked) belongs 13%; to `CC1(C)CC(NC(=O)c2ccc(-c3ccc([N+](=O)[O-])cc3)o2)CC(C)(C)N1`, -3.5%.

As for `Cc1ccc(C(CC(=O)NCc2ccco2)c2ccccc2)c(O)c1` (centres unmarked), the “hERG current change (%, negative = inhibition) at 1uM” value amounted to 3.09%. As to `Cc1nnc(SCC(=O)NNC(=O)c2ccco2)n1-c1cccc(Cl)c1`, the “hERG current change (%, negative = inhibition) at 1uM” value amounted to 13.7%. To `CN(C)CCSc1nc(N)c2c3c(sc2n1)COC(C)(C)C3` belongs -7.27%. Under `Cc1ccc(S(=O)(=O)Nc2ccc(C(=O)NCc3cccnc3)cc2)cc1` stands 10.9%; under `COc1ccc(N/N=C/c2c(O)n(-c3cccc(C)c3)c(=O)[nH]c2=O)cc1`, 2.88%. To `CN(C)CCCN=Cc1c(O)n(CCc2ccccc2)c(=O)[nH]c1=O` belongs 7.97%; to `Cc1nc(SCC(O)CCl)c([N+](=O)[O-])[nH]1` (centres unmarked), 11.2%. With `COc1ccc(N2CCN(C(=O)c3c(C)nn(-c4ccccc4)c3C)CC2)cc1`, the “hERG current change (%, negative = inhibition) at 1uM” value is reported as 11.5%. To `CCOC(=O)c1sc2nccc(N(C)C)c2c1N=CNOC` belongs 4%; to `CC(=O)Nc1ccc(S(=O)(=O)Nc2cccc(-c3cn4c(n3)SCC4)c2)cc1`, 19.8%. As to `COc1ccc(C(=O)c2ccc3oc(-c4ccc(OC)cc4)c(C#CCCO)c3c2)cc1`, the “hERG current change (%, negative = inhibition) at 1uM” value worked out at 14%. Under `O=S(=O)(c1ccccc1)N1CCN(C(c2ccccc2)c2ccc(OC(F)(F)F)cc2)CC1` (centres unmarked) stands 9.37%. Under `Cc1cc(NC(=O)CCC(=O)N(CC2CCCO2)C(C(=O)NC2CCCC2)c2cccnc2)no1` (centres unmarked) stands 14.2%. To `O=C1C(NS(=O)(=O)c2cccs2)=C(N2CCN(Cc3ccccc3)CC2)C(=O)c2ccccc21` belongs 5.43%; to `CCC(CC)=NNc1cccc([N+](=O)[O-])c1`, 7.41%; to `O=C1c2ccccc2C(=O)N1CCC#Cc1ccc2cc(CCO)oc(=O)c2c1`, 12.8%. Take `COc1ccc(-c2cn(-c3ccc(C)cc3C)c(=O)[nH]2)cc1OC`: the “hERG current change (%, negative = inhibition) at 1uM” value came out at 8.04%.

With `O=C(CNC(=O)c1cccc(F)c1)N/N=C/c1cccnc1`, the “hERG current change (%, negative = inhibition) at 1uM” value was determined as 13.5%. To `CCCCNC(=O)NNC(=O)c1ccc(F)cc1` belongs 12%; to `CCN1CCSc2ccc(C(=O)NCc3ccccc3F)cc21`, 4.43%. Under `CCCCn1c(=O)[nH]c(=O)c2c1nc(-c1ccccc1F)n2Cc1ccccc1` stands 8.83%; under `CCC(C(=O)OCC(=O)NC(=O)c1ccccc1OC)c1ccccc1` (centres unmarked), 18.1%; under `Cc1ccc(C)c(N2CCN(S(=O)(=O)c3cccc4cccnc34)CC2)c1`, 0.21%.

In the case of `Cc1ccccc1SCC(=O)NCCCn1ccnc1`, the “hERG current change (%, negative = inhibition) at 1uM” value was determined as 8.54%.

As to `O=C(CSc1nc2ccccc2c(=O)n1-c1ccccc1)N1CCCC1`, the “hERG current change (%, negative = inhibition) at 1uM” value stood at 8.39%. To `CCNC(=O)N1CCN(CCCC(c2ccc(F)cc2)c2ccc(F)cc2)CC1.Cl` belongs -90.3%.

`CC(OC(=O)CN1C(=O)NC2(CCCC2)C1=O)C(=O)c1ccc(C(C)(C)C)cc1` (centres unmarked): the “hERG current change (%, negative = inhibition) at 1uM” value is reported as -6.44%. Under `O=C1CC(c2ccccc2)c2cc(O)ccc2O1` (centres unmarked) stands 11.4%. To `O=C(NCc1ccc2c(c1)OCO2)c1cc2ccccc2o1` belongs 12.8%.
